# Measurements taken from the supplement of paper PMC12217912.
# The other results are listed elsewhere or left out. Sequences were assembled here from the parent chain. Values near 0.05 are background.
# B1: TEV protease; numbered along this chain (parent)
# chain: MGESLFKGPRDYNPISSSICHLTNESDGHTTSLYGIGFGPFIITNKHLFRRNNGTLVVQSLHGVFKVKDTTTLQQHLVDGRDMIIIRMPKDFPPFPQKLKFREPQREERICLVTTNFQTKSMSSMVSDTSCTFPSGDGIFWKHWIQTKDGQCGSPLVSTRDGFIVGIHSASNFTNTNNYFTSVPKNFMELLTNQEAQQWVSGWRLNADSVLWGGHKVFMVKPEEPFQPVKEATQL
# Variants of: B1
# Assay: raw area under fraction-flipped curve 0-4 h after induction (AUC4h, not background-subtracted), DNA-recorder readout of cleavage of the substrate (dimensionless); higher = more cleavage of the substrate by the protease variant
# Conditions: temperature: 34 °C; time window: 0-4 h after rhamnose induction
# Method: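 In vivo DNA recorder in E. coli TOP10(DE3) ΔrhaA at 34 °C. Each TEVp single-site mutant (parent TEVp 0) is paired with a single-site variant of the 7-mer TEVs (canonical ENLYFQ|S). The substrate sits between flexible linkers in a Bxb1-sfGFP-TEVs-SsrA fusion, so cleavage stabilises Bxb1 and speeds flipping of a recombination array, read by NGS. The value is the raw area under the fraction-flipped curve over 0-4 h after rhamnose induction (AUC4h), with ≥20 reads per time point. It is not background-subtracted; inactive controls average about 0.047.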
# 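Further: Bxb1 expression induced with 0.2% (w/v) L-rhamnose at OD600 near 0.5, cultures sampled hourly, flipped fraction per protease–substrate barcode pair counted by paired-end Illumina sequencing.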
Variant,area with substrate ENAYFQS,area with substrate ENCYFQS,area with substrate ENDYFQS,area with substrate ENEYFQS,area with substrate ENFYFQS,area with substrate ENGYFQS,area with substrate ENKYFQS,area with substrate ENMYFQS,area with substrate ENNYFQS,area with substrate ENPYFQS,area with substrate ENQYFQS,area with substrate ENRYFQS,area with substrate ENSYFQS,area with substrate ENTYFQS,area with substrate ENYYFQS,area with substrate ENHYFQS,area with substrate ENIYFQS,area with substrate ENVYFQS,area with substrate ENWYFQS
T30I,0.0614,0.0637,0.0768,0.0497,0.0506,0.056,0.0546,0.0621,0.062,0.0505,0.122,0.0669,0.0579,0.0733,0.0658,–,–,–,–
T30P,0.0542,0.0695,0.0748,0.0537,–,–,0.0867,–,0.0687,–,–,–,0.0593,0.081,–,0.0581,0.106,0.0617,0.0552
Y34R,0.0409,0.0109,–,–,–,0.0559,0.0591,–,–,–,0.0648,0.061,0.0598,–,–,0.0376,–,0.0674,–
Y34S,0.0544,–,0.0512,–,–,0.111,0.0678,–,–,–,0.0563,0.0763,0.056,–,0.0471,0.0572,–,–,0.0692
Y34V,0.0609,0.056,0.0676,0.0677,0.0805,0.0592,0.066,–,–,–,0.0592,–,0.0633,–,–,0.0544,–,–,0.0425
I36K,0.0423,0.0397,0.0384,–,0.0408,0.0329,0.0435,–,0.042,0.0382,0.0364,–,0.0375,–,–,–,0.0297,–,–
F38H,0.0618,0.0578,0.0567,0.0573,0.0543,0.067,0.0463,–,0.0534,0.0579,0.0695,0.0604,0.0636,–,–,0.0601,0.0975,0.0925,0.0542
F38Q,0.0518,–,0.0696,0.0609,0.0659,0.0717,0.0498,0.0826,0.0589,0.0582,0.056,0.0534,0.0502,0.0612,0.0673,0.0338,0.0952,0.0747,–
P40V,0.0635,0.0719,–,0.0363,0.0382,0.0177,–,0.0662,0.0556,0.0474,0.0562,–,0.0588,0.051,0.0517,0.0549,–,0.08,–
F41H,0.0615,0.0621,0.0591,0.0597,0.0569,0.0587,–,–,0.0584,–,0.0648,0.0496,0.0636,0.0578,–,0.0758,0.0958,0.083,–
I42K,0.0358,0.053,0.0492,0.0531,0.0662,0.0533,–,0.0642,0.0562,0.0626,0.0584,0.0541,0.0437,–,0.0568,0.0329,0.0528,–,0.0527
I43Y,0.0498,0.0709,0.0459,0.0562,–,0.0496,0.0511,–,0.0494,0.0572,0.0431,0.0393,–,0.0545,0.0679,0.0541,–,–,–
F49W,0.0634,0.0663,0.0616,0.0567,0.0578,0.0471,0.0642,0.0502,0.0564,0.0621,0.0568,0.055,0.0663,0.0833,–,0.0603,–,0.0721,–
R50G,0.0527,0.0552,0.0517,0.0636,–,0.0697,0.0722,–,0.0633,0.0377,0.0637,0.0579,0.0512,–,0.0642,0.0591,0.111,0.0918,–
R50M,0.0658,0.0712,–,0.0588,0.0486,0.0912,0.0549,0.0995,0.0499,0.0646,0.0597,0.0571,0.0606,–,0.0725,0.0621,0.142,0.0792,–
R51P,0.0596,0.0393,0.0628,0.0509,0.0626,0.0679,0.0489,–,–,0.0602,0.0577,0.0456,0.0585,0.0808,–,–,0.0735,–,–
R51W,0.0728,0.0557,0.051,0.0459,–,0.0569,–,0.0988,0.0605,0.0524,0.0295,0.0411,0.0702,0.0737,–,–,–,0.082,–
R51Y,0.0662,0.0624,0.0795,0.0554,–,0.0575,–,–,0.061,0.0575,0.0513,–,–,–,0.0603,–,–,0.053,0.0356
N52A,0.0428,–,–,0.0555,0.0698,–,–,0.0634,–,0.0576,0.0653,0.0667,0.0631,0.0667,–,–,–,0.0501,–
N52L,0.057,–,0.0722,0.0681,0.0849,0.0623,0.0735,0.0623,0.0523,–,–,0.0399,0.0563,0.0654,–,0.0606,–,0.0616,0.0682
N53F,0.0592,0.0588,0.0554,0.0546,0.0551,0.0583,0.0502,0.0653,0.0672,0.0594,0.0588,0.062,–,0.122,–,–,0.0763,0.0636,–
N53W,0.0624,0.0511,0.0635,0.0658,0.0478,0.0644,0.0599,0.0779,0.039,0.0599,0.0866,0.084,0.0606,0.0625,0.0546,0.0724,0.0867,0.0616,0.0592
N53Y,0.0711,0.0563,0.066,0.051,0.0558,0.0509,–,0.0796,0.0621,0.06,0.0606,0.0564,0.0758,0.0587,–,–,0.0812,0.0625,0.0573
G54E,0.0502,0.0785,0.0619,0.0548,–,–,0.0562,–,0.0687,0.046,0.0546,0.0526,0.0585,0.0621,–,0.0743,0.0688,0.0698,–
T55A,0.05,–,0.0591,0.0679,–,0.0548,0.0525,0.0664,0.0607,0.036,0.0625,0.0549,0.064,0.064,–,0.0732,0.0883,0.0671,–
